Source: the supplement of paper PMC10369915
The list shows a part of the results. Rule as the data show it: active = 3.2 or more and inactive = the rest. Only a few entries rise above the background.

The binders below were run against SHP2 C-SH2 domain E139D (assay: enrichment score (SH2-bound / input frequency) (ratio); bacterial display of known human phosphotyrosine sites (pTyr-Var adds point mutants) read by sequencing; higher = stronger binding; tyrosines were phosphorylated by kinases first). Conditions: peptide library: pTyr-Var.
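Also: displayed peptides selected on beads carrying the immobilized SH2 domain, with library peptides lacking any tyrosine serving as negative controls.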

Enrichment score, inactive:
KDHPDYKFPPR [SOX10_Y171_Q174P_YF] 0.859
KDHPDYKFQPR [SOX10_Y171_YF] 1
KHMADYPDFKF [SOX11_Y113_YF] 0.785
ADYPDCKYRPR [SOX11_Y116_Y116C] 0.636
ADFPDYKFRPR [SOX11_Y116_YF] 1.03
KDPPDYKYQPR [SOX9_Y172_H169P] 0.773
KDPPDYKFQPR [SOX9_Y172_H169P_YF] 0.8
KDHLDYKYQPR [SOX9_Y172_P170L] 0.976
KDHRDYKYQPR [SOX9_Y172_P170R] 1.51
KDHRDYKFQPR [SOX9_Y172_P170R_YF] 1.37
QTLEAYIRWNK [SPAST_Y604] 2.17
AVIADYMFWLG [SPATA16_Y290_M286V] 2.99
TVQVAYYTVMM [SPATA17_Y83_M86V] 1.14
TVQVAYFTVMM [SPATA17_Y83_M86V_YF] 0.916
VQVAFYTMMMN [SPATA17_Y84_YF] 1.73
EAMSDYKKQLR [SPATA18_Y229] 0.722
SRPTQYSSFSC [SPEM2_Y104] 0.809
NQDRTYYESVR [SPEN_Y632] 0.749

What follows are binders tested against SHP2 C-SH2 domain wild-type in the same assay as above. Conditions: peptide library: pTyr-Var.

Enrichment score, inactive:
KDHPDYKFPPR [SOX10_Y171_Q174P_YF] 0.69
KDHPDYKFQPR [SOX10_Y171_YF] 0.785
KHMADYPDFKF [SOX11_Y113_YF] 0.689
ADYPDCKYRPR [SOX11_Y116_Y116C] 0.917
ADFPDYKFRPR [SOX11_Y116_YF] 0.652
KDPPDYKYQPR [SOX9_Y172_H169P] 0.848
KDPPDYKFQPR [SOX9_Y172_H169P_YF] 0.711
KDHLDYKYQPR [SOX9_Y172_P170L] 0.663
KDHRDYKYQPR [SOX9_Y172_P170R] 1.47
KDHRDYKFQPR [SOX9_Y172_P170R_YF] 1.21
QTLEAYIRWNK [SPAST_Y604] 2
AVIADYMFWLG [SPATA16_Y290_M286V] 2.95
TVQVAYYTVMM [SPATA17_Y83_M86V] 1.41
TVQVAYFTVMM [SPATA17_Y83_M86V_YF] 1
VQVAFYTMMMN [SPATA17_Y84_YF] 1.71
EAMSDYKKQLR [SPATA18_Y229] 0.426
SRPTQYSSFSC [SPEM2_Y104] 1.3
NQDRTYYESVR [SPEN_Y632] 0.778

Each binder was assayed against SHP2 N-SH2 domain L43F in the same assay as above. Conditions: peptide library: pTyr-Var.

Enrichment score, inactive:
KDHPDYKFPPR [SOX10_Y171_Q174P_YF] 0.583
KDHPDYKFQPR [SOX10_Y171_YF] 0.859
KHMADYPDFKF [SOX11_Y113_YF] 0.779
ADYPDCKYRPR [SOX11_Y116_Y116C] 0.625
ADFPDYKFRPR [SOX11_Y116_YF] 0.692
KDPPDYKYQPR [SOX9_Y172_H169P] 0.778
KDPPDYKFQPR [SOX9_Y172_H169P_YF] 0.739
KDHLDYKYQPR [SOX9_Y172_P170L] 1.33
KDHRDYKYQPR [SOX9_Y172_P170R] 1.61
KDHRDYKFQPR [SOX9_Y172_P170R_YF] 1.05
QTLEAYIRWNK [SPAST_Y604] 2.1
AVIADYMFWLG [SPATA16_Y290_M286V] 3.06
TVQVAYYTVMM [SPATA17_Y83_M86V] 1.29
TVQVAYFTVMM [SPATA17_Y83_M86V_YF] 0.926
VQVAFYTMMMN [SPATA17_Y84_YF] 1.71
EAMSDYKKQLR [SPATA18_Y229] 0.506
SRPTQYSSFSC [SPEM2_Y104] 0.703
NQDRTYYESVR [SPEN_Y632] 0.577

The binders below were run against SHP2 N-SH2 domain T42A in the same assay as above. Conditions: peptide library: pTyr-Var.

Enrichment score, inactive:
KDHPDYKFPPR [SOX10_Y171_Q174P_YF] 0.541
KDHPDYKFQPR [SOX10_Y171_YF] 0.765
KHMADYPDFKF [SOX11_Y113_YF] 0.621
ADYPDCKYRPR [SOX11_Y116_Y116C] 0.53
ADFPDYKFRPR [SOX11_Y116_YF] 0.695
KDPPDYKYQPR [SOX9_Y172_H169P] 0.724
KDPPDYKFQPR [SOX9_Y172_H169P_YF] 0.762
KDHLDYKYQPR [SOX9_Y172_P170L] 0.696
KDHRDYKYQPR [SOX9_Y172_P170R] 1.32
KDHRDYKFQPR [SOX9_Y172_P170R_YF] 1.09
QTLEAYIRWNK [SPAST_Y604] 1.94
AVIADYMFWLG [SPATA16_Y290_M286V] 2.54
TVQVAYYTVMM [SPATA17_Y83_M86V] 1.22
TVQVAYFTVMM [SPATA17_Y83_M86V_YF] 0.864
VQVAFYTMMMN [SPATA17_Y84_YF] 1.39
EAMSDYKKQLR [SPATA18_Y229] 0.603
SRPTQYSSFSC [SPEM2_Y104] 0.832
NQDRTYYESVR [SPEN_Y632] 0.709

What follows are binders tested against SHP2 N-SH2 domain T52S in the same assay as above. Conditions: peptide library: pTyr-Var.

Enrichment score, inactive:
KDHPDYKFPPR [SOX10_Y171_Q174P_YF] 0.627
KDHPDYKFQPR [SOX10_Y171_YF] 0.803
KHMADYPDFKF [SOX11_Y113_YF] 0.712
ADYPDCKYRPR [SOX11_Y116_Y116C] 0.533
ADFPDYKFRPR [SOX11_Y116_YF] 0.78
KDPPDYKYQPR [SOX9_Y172_H169P] 1.04
KDPPDYKFQPR [SOX9_Y172_H169P_YF] 0.919
KDHLDYKYQPR [SOX9_Y172_P170L] 0.769
KDHRDYKYQPR [SOX9_Y172_P170R] 1.4
KDHRDYKFQPR [SOX9_Y172_P170R_YF] 1.19
QTLEAYIRWNK [SPAST_Y604] 2.45
AVIADYMFWLG [SPATA16_Y290_M286V] 2.76
TVQVAYYTVMM [SPATA17_Y83_M86V] 1.52
TVQVAYFTVMM [SPATA17_Y83_M86V_YF] 0.974
VQVAFYTMMMN [SPATA17_Y84_YF] 1.42
EAMSDYKKQLR [SPATA18_Y229] 0.693
SRPTQYSSFSC [SPEM2_Y104] 0.508
NQDRTYYESVR [SPEN_Y632] 0.591

What follows are binders tested against SHP2 N-SH2 domain wild-type in the same assay as above. Conditions: peptide library: pTyr-Var.

Enrichment score, inactive:
KDHPDYKFPPR [SOX10_Y171_Q174P_YF] 0.786
KDHPDYKFQPR [SOX10_Y171_YF] 1.03
KHMADYPDFKF [SOX11_Y113_YF] 0.74
ADYPDCKYRPR [SOX11_Y116_Y116C] 1.05
ADFPDYKFRPR [SOX11_Y116_YF] 1.01
KDPPDYKYQPR [SOX9_Y172_H169P] 0.917
KDPPDYKFQPR [SOX9_Y172_H169P_YF] 0.744
KDHLDYKYQPR [SOX9_Y172_P170L] 0.944
KDHRDYKYQPR [SOX9_Y172_P170R] 1.5
KDHRDYKFQPR [SOX9_Y172_P170R_YF] 1.07
QTLEAYIRWNK [SPAST_Y604] 1.67
AVIADYMFWLG [SPATA16_Y290_M286V] 2.76
TVQVAYYTVMM [SPATA17_Y83_M86V] 1.46
TVQVAYFTVMM [SPATA17_Y83_M86V_YF] 1.03
VQVAFYTMMMN [SPATA17_Y84_YF] 1.87
EAMSDYKKQLR [SPATA18_Y229] 0.673
SRPTQYSSFSC [SPEM2_Y104] 0.775
NQDRTYYESVR [SPEN_Y632] 0.908
